“And” between values parts separate entries of the source, which are not always exact repeats. Identical values can stand only once.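 Five concentrations, 48 hours, 96-well plates. The concentration for 50% growth inhibition is given as GI50. Definition used: TGI = concentration required for complete inhibition of growth.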
test system: NCI-H322M lung; experiment: NCI tumour cell line growth inhibition, 48 h

SMILES | TGI | GI50
O=C(O)C1C2CC3CC2CC31 (configuration not stated) | > 100 µM | 
CCN(CC)c1ccc(/C=N\NC(=O)c2cccc(Nc3ccnc(C(F)(F)F)c3)c2)c(O)c1 | > 100 µM | 0.183 µM
O=c1c2c(=NCCCN3CCCC3)cc3c(=O)n(CCCN4CCCC4)c(=O)c4c(NCCCN5CCCC5)cc(c(O)n1CCCN1CCCC1)c2c4-3 | 9.69 µM | 3.1 µM
CCCC/C(C)=N/NC(N)=S | > 100 µM | 
COc1cc(C=NCC(=O)CSC(c2ccccc2)c2ccccc2)cc(OC)c1OC | > 100 µM | 24.9 µM
COC(=N)/C(=C1\OC(N)=C(c2ccc(Cl)cc2)C1=O)c1ccc(Cl)cc1 | > 100 µM | 
COCCn1cc(-c2csc(-c3c[nH]c4ccc(F)cc34)n2)c2cccnc21 | > 100 µM | > 100 µM
N#Cc1nc(Cc2cccs2)oc1N | > 100 µM | 
CC(C)=CCC[C@](C)(O)[C@H]1CC[C@]2(C)[C@@H]1CC[C@@H]1[C@@]3(C)CC[C@H](OC(=O)CCC(=O)O)C(C)(C)[C@@H]3CC[C@]12C | 86.6 µM | 21.8 µM
Cc1ccc(C)c(NC(=O)CCc2n[nH]c(=S)o2)c1 | > 100 µM | 
O=C1CCCC2COc3ccc(O)c1c32 (configuration not stated) | > 100 µM | 
O=C(NNc1ccc([N+](=O)[O-])cc1)C1OC(CO)C(O)C1O (configuration not stated) | > 100 µM | 
Cc1ccc2c(=O)c3c(O)c4c(cc3n(C)c2c1)OC(C)(C)C=C4 | > 10 µM | 
O=C1CCC(c2ccccc2)(c2ccccc2)CC1 | > 100 µM | 
NC(=O)Cn1c(=O)[nH]c(=O)c2[nH]cnc21 | > 100 µM | 
Cc1ccc(NC(=O)CCC(=O)C(C#N)c2ccc(Cl)cc2)cc1C (configuration not stated) | > 100 µM | 
CC(C)(C)OC(=O)N[C@@H](Cc1ccccc1)C(=O)N1CC[C@@H](C(=O)N2[C@H]3CC4CC[C@@]3(CS2(=O)=O)C4(C)C)N1 | > 100 µM | 
CNc1ccc([N+](=O)[O-])cc1C(=O)N1CCC[C@H]1CO | > 100 µM | 
Cc1[nH]nc(C(=O)N/N=C/c2cccs2)c1N=NN(C)C | 89.8 µM | 
CC(C)c1cc2c(O)c(c1)Cc1cc(C(C)C)cc(c1O)Cc1cc(C(C)C)cc(c1O)Cc1cc(C(C)C)cc(c1O)Cc1cc(C(C)C)cc(c1O)Cc1cc(C(C)C)cc(c1O)C2 | > 100 µM | 
O=C(O)c1oc2ccc([N+](=O)[O-])c3c2c1CCC3 | > 100 µM | 
Cc1nc2ccccc2n1CCc1nc2ccccc2[nH]1 | > 100 µM | 
CC1=C(C(=O)OC(C)C)C(c2cccc([N+](=O)[O-])c2)C(C(=O)OC(CO[N+](=O)[O-])CO[N+](=O)[O-])=C(C)N1 (configuration not stated) | > 100 µM | 
CC(=O)OCC1OC(O[C@@H]2C[C@H]3C(C)(C)[C@H](OC(C)=O)CC[C@]3(C)[C@H]3CC[C@@H]4[C@]5(CC[C@@]4(C)[C@@]32C)O[C@@H]([C@H](O)C(C)(C)O)C[C@@H]5C)C(O)C(O)C1O (some centres not stated) | 3.39 µM | 1.69 µM
C1CCN2CC34CC(CC5CCCN(C6CCCC3N6)C54)C2C1 (configuration not stated) | > 100 µM | 
CC1(C)CN=C(c2ccc3ccccc3c2O)N1 | > 100 µM | 
COc1cccc2c1C(=O)c1c(O)c3c(c(O)c1C2=O)C[C@](O)(C(=O)CO)CC3OC1CC(N)C(OC2CCCCO2)C(C)O1 (some centres not stated) | 5.73 µM | 

SMILES | TGI | GI50
C[C@@H](CC(O)C(O)C(C)(C)O)C1CCC23CC12CCC1[C@@]2(C)CCC(=O)C(C)(C)C2CC(OC2OC(CO)C(O)C(O)C2O)[C@]13C (some centres not stated) | > 10 µM | 
CCCCCCCCCCCOCCC1C(C(C)OCCN2CCCC2)OC2OC(C)(C)OC21 (configuration not stated) | 10.1 µM | 
O=C(Nc1ccc(-c2nc3ccc(NC(=O)c4ccc(Cl)cc4)cc3[nH]2)cc1)c1ccc(Cl)cc1 | 25.2 µM | 9.1 µM
OCC1=C[C@@](COCc2ccccc2)(OCc2ccccc2)[C@@H](OCc2ccccc2)[C@@H]1OCc1ccccc1 | > 100 µM | 
Cc1ccc(S(=O)(=O)ON=C2CC(c3ccccc3)N(C)C(c3ccccc3)C2)cc1 (configuration not stated) | 49.4 µM and 49.8 µM | 
O=C(O)CNS(=O)(=O)c1ccc(NC(=O)c2cccc([N+](=O)[O-])c2)cc1 | > 100 µM | 
C/C(=N\N=C(N)N)c1sc(-c2nc(C)c(/C(C)=N/N=C(N)N)s2)nc1C | > 100 µM | 
C=CC(=O)N1C/C(=C\c2ccc(F)cc2)C(=O)/C(=C/c2ccc(F)cc2)C1 | 4.2 µM | 
Cc1ccc(NC(=O)NC23CC4CC(CC(F)(C4)C2)C3)cc1 | > 100 µM | 
NCCCN1CCN(CCCNc2ccc3ncn4c5ccccc5c(=O)c2c34)CC1 | 17.2 µM | 
CC(CN(C)C)C(O)(c1ccccc1)c1ccccc1 (configuration not stated) | > 100 µM | 
C=C1C(=O)OC2C1CC1OC2C(C)CCC/C(C)=C\CCC1(C)O (configuration not stated) | 84 µM | 
CCn1c(-c2cc3ccccc3cc2OC(=O)c2ccccc2)n[nH]c1=S | > 50 µM | > 50 µM
Cc1cc(C#Cc2ccccc2)ccc1-n1c(/C=C/c2ccc(O)cc2)nc2ccccc2c1=O | > 100 µM | 2.93 µM
COc1cc(C(N)=O)c(OC)c(OC)c1OC | > 100 µM | 
CCOC(=O)c1c(C)n(CCN2CCN(C)CC2)c2ccc(OC)cc12 | > 100 µM | 
N#CCc1nc2c(s1)C(=O)c1ccccc1C2=O | 62.1 µM | 
Cc1cc(I)cc(CN(C)CCCCN2CCCC2)c1O | > 100 µM | 28.4 µM
CCCS(=O)OC1C(C2COC(C)(C)O2)OC2OC(C)(C)OC21 (configuration not stated) | 37.7 µM | 
Cc1ccc2c3ccc4c(c3n(C)c2c1)C(=O)C=CC4=O | > 10 µM | 
Cc1nc(-c2ccc(Cl)cc2)cn2c1nc1ccccc12 | > 100 µM | 
Cc1cccc(/C=N/NC(=S)NC(C)(C)C)n1 | > 100 µM | 
CCCCCCCCCC[C@@H](O)[C@H]1CC[C@@H]([C@H]2CC[C@H]([C@H](O)CCCCCCCCCC[C@@H]3CC(CC(C)=O)C(=O)O3)O2)O1 (some centres not stated) | > 100 µM | 
S=C1OC2C3C4CC5C3C(O1)C1C5C4C21 (configuration not stated) | > 100 µM | 
CC(=O)Oc1ccc(-c2c(OC(C)=O)c(OC(C)=O)c(-c3ccc(OC(C)=O)c(OC(C)=O)c3)c(OC(C)=O)c2OC(C)=O)cc1 | 62.9 µM | 
COc1cc(Nc2ncc(-c3ccccc3)o2)cc(OC)c1OC | > 25 µM | 1.78 µM
Cc1cc(Br)cc(C)c1NC(=O)C(=O)C(C(=O)c1ccc(Cl)c(Cl)c1)C1OC(=O)c2ccccc21 (configuration not stated) | > 100 µM | 

SMILES | TGI | GI50
C[P+](C)(CC(F)(F)F)c1ccccc1 | > 100 µM | 
CC(Cl)CC(=O)Nc1ccc2c(c1)oc(=O)c1cc(NC(=O)CC(C)Cl)ccc12 (configuration not stated) | 31.8 µM | 7.02 µM
CC(C)(CN1CCCCC1)C(=O)CC(SCCS(=O)(=O)O)c1ccc(Cl)c(Cl)c1 (configuration not stated) | 21.6 µM | 
COc1ccc(N2C(=O)CSC2c2cc(OC)c(OC)c(OC)c2)cc1 (configuration not stated) | > 100 µM | 
CN(NC(=O)/C(=C/C=C/c1ccccc1)NC(=O)c1ccccc1)C1=C(Cl)C(=O)[N+](c2ccccc2)=CC1 | > 100 µM | 
O.O=[Se](=O)(O)O.[NH-]C1CCCCC1[NH-].[Pt+2] (configuration not stated) | > 100 µM | 43 µM
C(=C1/CCCCC([n+]2ccccc2)=N1)/c1ccccc1 | > 100 µM | 
CN1C=CN(Cc2ccc(-c3ccccn3)nc2)[CH-]1.CN1C=CN(Cc2ccc(-c3ccccn3)nc2)[CH-]1.[Au+3] | > 43 µM | 3.81 µM
C1CN(C23OC4(N5CCOCC5)C5C6CC(C7C6C4C72)C53)CCO1 (configuration not stated) | > 100 µM | 
OCC1CC2CC1C1(C2)OCCO1 (configuration not stated) | > 100 µM | 
ClCc1ccc(Cn2cnc3ncnc(Cl)c32)cc1 | 3.02 µM | 1.64 µM
C[N+](C)(C)c1nc(N)nc2c1ncn2C1OC(CO)C(O)C1O (configuration not stated) | > 100 µM | 
Cc1ccc(C)c2sc3cc(=O)ccc-3nc12 | > 100 µM | 
COc1ccc(/C(Cl)=C(\C=O)c2ccc(Cl)cc2)cc1 | 32.2 µM | 
CCCNC(=O)Cn1c(-c2ccccc2)cc2ccccc21 | > 100 µM | 
NC(=O)CN1CCN(c2nc(N3CCCC3)c3nc(Cl)c(NCc4ccccc4)nc3n2)CC1 | 34.8 µM | 
Cc1cccc(-c2cc(=O)c3c(C)ccnc3[nH]2)c1 | > 100 µM | 
CC1Oc2c(c(O)cc3oc(=O)cc(-c4ccccc4)c23)C(=O)C1C (configuration not stated) | > 100 µM | 
Oc1cc(Br)cc2cc(Br)cnc12 | > 100 µM | 
O=C(c1ccccc1)c1ccc2c(c1)N=C(c1ccc(Cl)c(Cl)c1)CC(c1ccc3ccccc3c1)N2 (configuration not stated) | > 100 µM | 
NC(=O)Nc1n[nH]c(-c2ccccc2)n1 | > 100 µM | 
Cn1c(=O)c2[nH]cnc2n(C)c1=O | > 100 µM | 
Cn1c(=O)n2n(c1=O)C1C(=CC2)C2C=CC1n1c(=O)n(C)c(=O)n12 (configuration not stated) | > 100 µM | 
COCCOC(=O)CCn1cc(F)c(=O)[nH]c1=O | > 150 µg/mL | 7.87 µg/mL
C=C(C)[C@@H]1CC[C@]2(C#N)CC[C@]3(C)[C@H](CC[C@@H]4[C@@]5(C)CCCNC(C)(C)[C@@H]5CC[C@]43C)[C@@H]12 | 3.66 µM | 1.89 µM
COC(=O)C1CC(C=O)=C(SC)N1 (configuration not stated) | > 50 µM | 
